PubChem BioAssay AID463173 (ICCB-Longwood Screening Facility, Harvard Medical School, 2010)
In all, about 52,000 compounds went through this assay and about 4,300 (8.3%) were called active. Rule as the data show it: active = survival mostly below about 52% (no sharp cut-off); inactive = mostly above about 56%. Some of the results follow.

Tested on: DeltatarO mutant
Assay: S. aureus survival, RN4220 and DeltatarO strains – OD600, teichoic acid synthesis inhibitors, primary screen (AID 463173)
Details: S. aureus RN4220 wild type/DeltatarO growth, OD600, 18 h, hits give low values, screened at 18.75 µg/mL (by protocol)

SMILES | survival
O=C(C1=C(O)C(=O)N(CCN2CCOCC2)C1c1ccccc1)c1ccco1 (centres undefined) | inactive: 102%
Cc1cc(O)c(C(c2ccccc2Cl)N2CCN(c3ccccc3)CC2)c(=O)n1Cc1ccco1 (centres undefined) | inactive: 85%
O=C(CN(C1CCCCC1)S(=O)(=O)c1ccccc1)NCc1ccco1 | inactive: 99%
Cc1ccc2nc(N(Cc3cccnc3)C(=O)C3COc4ccccc4O3)sc2c1 (centres undefined) | inactive: 94%
CCc1ccc(CN(C(=O)c2cc3ccccc3oc2=O)C2CCS(=O)(=O)C2)cc1 (centres undefined) | inactive: 66%
Cc1ccc(CSc2cn(CC(=O)N3CCCCC3)c3ccccc23)cc1 | inactive: 73%
CC(=O)c1ccc(NC(=O)c2ncn(-c3ccccc3)n2)cc1 | active: 34%
COc1ccc(Cl)cc1NC(=O)CCC(=O)c1ccc(C)cc1 | inactive: 79%
COc1ccc(CNC(=O)COCc2cc(-c3cccs3)on2)cc1OC | inactive: 99%
CCCCNC(=O)CCCn1c(=O)c2ccccc2n(Cc2ccccc2C)c1=O | inactive: 82%
CCc1c(C)sc2c1CCN(Cc1ccc(F)cc1)C2c1ccccc1 (centres undefined) | inactive: 81%
CC(C)(C)NC(=O)COc1ccc(CNc2ccc3c(c2)OCCO3)cc1 | inactive: 87%
CCN(CC)CCNC(=O)Cn1ncc2c([nH]c3ccccc32)c1=O | inactive: 89%
CCCCN(CC)CCCNC(=O)c1cc2c(-c3ccc(OC)c(OC)c3)nn(C)c2s1 | inactive: 140%
COCCNC(=O)C1CCCN(S(=O)(=O)c2ccc3c(ccn3C)c2)C1 (centres undefined) | inactive: 55%
O=C(NCc1ccc(F)cc1)c1ccc(NC(=O)N2CC3CCCN3c3ccccc32)cc1 (centres undefined) | inactive: 113%
CCOc1ccc(-c2cnc(NCc3ccc(OC)cc3OC)n2C)cc1 | active: 37%
Cc1ccc(NC(=O)c2cccn2-c2nnc(N3CCCCC3)s2)cc1Cl | inactive: 69%
Cn1nc(C(=O)N2CCN(c3ccccc3F)CC2)c2c1-c1ccccc1SC2 | active: 32%
CN(C)CCCNc1oc(/C=C/c2ccc(F)cc2)nc1C#N | inactive: 89%
Cc1ccc(NC(=O)CCCn2c(=O)c3cccn3c3cccnc32)c(Cl)c1 | inactive: 95%
O=c1oc2c3c(ccc2c2ccccc12)OCN(Cc1cccc(Cl)c1)C3 | inactive: 64%
Cc1c(CCNC(=O)Cc2ccccc2)sc2nc(-c3ccc(F)cc3)nn12 | inactive: 84%

SMILES | survival
CCOc1ccccc1N(C)C(=O)C1CCCN(c2ncnc3onc(-c4ccc(F)cc4)c23)C1 (centres undefined) | inactive: 74%
Cc1cc(C)c(NC(=O)CSc2nccn2Cc2ccco2)c(C)c1 | inactive: 76%
O=C(CN1CCN(Cc2ccc(Cl)cc2)C1=O)NCc1ccc(F)cc1 | inactive: 128%
CCn1cc(C(=O)NCCc2ccccc2)c(=O)c2cc(S(=O)(=O)N(C)C3CCCCC3)ccc21 | inactive: 79%
COc1ccc(-c2noc(-c3ccc(NCc4ccccc4OC)c([N+](=O)[O-])c3)n2)cc1 | inactive: 57%
Cc1ccc(C2=Nc3ccccc3N(CC(=O)Nc3cccc(F)c3)C(=O)C2)cc1C | inactive: 79%
CC(=O)c1[nH]c(C)c(C(=O)NCCc2ccc(C)cc2)c1C | inactive: 52%
CC(=O)Nc1cccc(C(=O)NCc2ccc3c(c2)CCN3C(C)=O)c1 | inactive: 84%
CCOc1ccc(NC(=O)C2CCC(N3C(=O)C4CC=CCC4C3=O)CC2)cc1 (centres undefined) | inactive: 77%
Cc1cc(C)c(NC(=O)CCn2c(=O)c3cccn3c3ccccc32)c(C)c1 | inactive: 49%
CCN1CCN(C(c2ccc(SC)cc2)c2c(O)cc(C)n(Cc3ccco3)c2=O)CC1 (centres undefined) | inactive: 99%
COc1ccccc1NC(=O)C1CCN(S(=O)(=O)c2ccc3[nH]c4c(c3c2)CCCCC4)CC1 | inactive: 99%
Cc1nn(-c2ccccc2)c2c1cc1c(=O)n(C)c(=O)nc-1n2-c1cccc(Cl)c1 | inactive: 79%
Oc1ccc(-c2nc(-c3ccccc3)c(-c3ccc(Br)cc3)[nH]2)cc1 | active: -4%
COc1ccc(-c2cc(=O)c3cc(OCC(=O)OC(C)C)ccc3o2)cc1 | inactive: 124%
COCCCNC(=O)CSc1nc2cc3c(cc2c(=O)n1CCCCCC(=O)NCc1ccc2c(c1)OCO2)OCO3 | inactive: 79%
Cc1ccccc1-c1nnc(N(C(=O)C2CC2)C2CCCC2)s1 | inactive: 112%
CCCCNC(=O)C1CCC(CNS(=O)(=O)c2ccc(C)cc2)CC1 (centres undefined) | inactive: 91%
Cc1nc(NC(=O)c2c(-c3ccccc3)c(-c3ccccc3)nn(C)c2=O)sc1C | inactive: 48%
COc1ccc(CNC(=O)CN2C(=O)COc3ccc(S(=O)(=O)N4CCC(C)CC4)cc32)cc1 | inactive: 86%
Cc1ccc(NC(=O)Cn2c(=O)n(CCCCC(=O)NCCc3ccc(Cl)cc3)c(=O)c3ccccc32)cc1 | inactive: 100%
O=C(CSC1=NCCS1)Nc1ccnc2ccccc12 | inactive: 86%
COCCCN1C(=O)c2[nH]nc(-c3ccccc3O)c2C1c1ccc(OCc2ccccc2)cc1 (centres undefined) | active: 8%

SMILES | survival
COc1cc(NC(=O)CCS(=O)(=O)c2nc(-c3ccc4c(c3)OCO4)cc(C(F)(F)F)n2)cc(OC)c1OC | inactive: 81%
COc1ccc2[nH]cc(NC(=O)NCc3ccncc3)c(=O)c2c1 | inactive: 101%
Cc1cccc(N2CCN(C(=O)CN3C(=O)COc4ccc(S(=O)(=O)N5CCOCC5)cc43)CC2)c1C | inactive: 87%
CCC1CCCCN1C(=O)CSc1nc(-c2ccc(OC)c(OC)c2)cc(C(F)(F)F)n1 (centres undefined) | active: -3%
O=C1c2ccccc2C(=O)C1(O)N1CCOCC1 | inactive: 85%
CC1=C(C(=O)OC2CCCCCC2)C(c2cccc(F)c2F)CC(=O)N1 (centres undefined) | inactive: 128%
Cc1cccc(NC(=O)c2sc3nc4c(cc3c2N)CN(C(C)C)CC4)c1 | inactive: 80%
CCc1ccc(S(=O)(=O)Nc2ccc3[nH]c(=O)sc3c2)cc1 | inactive: 75%
CCOc1ccc2nc(N3CCCC(C(=O)Nc4ccc(OC)c(Cl)c4)C3)sc2c1 (centres undefined) | inactive: 93%
CN(C)S(=O)(=O)c1ccc2c(c1)N(CC(=O)Nc1ccc(F)cc1)C(=O)CS2 | inactive: 69%
NC(=O)C1CCN(C(=O)CN2CCc3ccccc3C2)CC1 | inactive: 95%
COc1cc(NC(=O)CCCc2nnc3n(CC(C)C)c(=O)c4sccc4n23)cc(OC)c1 | inactive: 100%
CCOC(=O)c1cc2c(=O)n3ccccc3nc2n(Cc2ccco2)c1=NC(=O)c1cccc(F)c1 | active: 17%
Fc1ccc(Nc2nc(SCc3ccccc3F)nc3ccccc23)cc1 | inactive: 55%
Cc1ccc(Cn2c(SCC(=O)NCc3ccccc3Cl)nc3ccsc3c2=O)cc1 | active: -5%
Cc1cc([N+](=O)[O-])ccc1NC(c1nnc(-c2ccccc2)o1)c1ccccc1F (centres undefined) | inactive: 82%
CC(=O)N1CCc2cc(Br)cc(S(=O)(=O)CCC(=O)N3CCN(c4ccccc4)CC3)c21 | active: 53%
Cc1nc2cc(C(=O)NC3CCCCCC3)ccc2n1-c1ccc(Br)cc1 | inactive: 55%
CC(C)N(C(=O)CSc1nnc(Cc2csc(Nc3ccccc3)n2)o1)C(C)C | inactive: 69%
O=C(CSc1nnc(-c2ccncc2)n1Cc1ccco1)OC1CCCCC1 | inactive: 89%
CN(C)c1ccc(CNC(=O)c2ccc(NC(=O)N3CCCCc4ccccc43)cc2)cc1 | inactive: 135%
N#Cc1c(-n2ncnc2-c2cccc(Br)c2)sc2c1CCCCC2 | active: 23%
COc1ccc(-n2c(SCC(=O)Nc3cccc(C)c3C)nc3c([nH]c4ccccc43)c2=O)cc1 | inactive: 101%

SMILES | survival
Cc1ccc2oc(=O)c3cc(C(=O)N4CCN(c5ccccc5F)CC4)sc3c2c1 | inactive: 62%
CC(C)(C)c1ccc(Oc2ccc(NC(=O)CCC(=O)OCC(=O)c3ccccc3)cc2)cc1 | inactive: 72%
CCOc1ccc(CCNC(=O)CN2C(=O)COc3ccc(S(=O)(=O)N4CCCCCC4)cc32)cc1 | inactive: 57%
CC(=O)c1cccc(NC(=O)Cn2c(=O)oc3cc(S(=O)(=O)N4CCCC4)ccc32)c1 | inactive: 138%
CCC(=O)C1=C(c2ccc(OC)c(OC)c2)N(C(=O)CC)n2c(CC)nnc2S1 | inactive: 81%
Cc1ccc(NC(=O)c2c(NC(=O)Cc3ccccc3)sc3c2CCCC3)cc1 | active: 28%
CN(C)c1ccc(-c2nnc3n(Cc4ccccc4)c(=O)c4ccccc4n23)cc1 | inactive: 76%
CC(=O)c1ccc(Nc2ccc3cc(S(=O)(=O)N4CCCC4)ccc3n2)cc1 | inactive: 84%
O=C(CCn1cnnn1)Nc1cc(C(F)(F)F)cc(C(F)(F)F)c1 | active: 69%
CC(C)Oc1cccc(C2CC(=O)Nc3cc4c(cc32)OCO4)c1 (centres undefined) | inactive: 67%
COc1ccc2c(c1)c1c(c(=O)n(-c3ccc(OC)c(OC)c3)c(=O)n1Cc1ccccc1F)n2C | inactive: 91%
CCS(=O)(=O)C(=C1NCCO1)S(=O)(=O)CC | inactive: 89%
COc1cc(NC(=O)CSc2nccn2C)cc(OC)c1OC | inactive: 71%
CC(C)CCn1nnc2sc(-c3ccccc3)cc2c1=O | inactive: 57%
O=C(NCCS(=O)(=O)N1CCN(c2ccc(F)cc2)CC1)c1cccc(C(F)(F)F)c1 | inactive: 90%
Cc1ccc(Cl)cc1N1CCN(C(=O)CCCn2c(=O)[nH]c3ccc(Br)cc3c2=O)CC1 | active: 29%
O=C(CNCc1ccco1)Nc1cccc(OC(F)(F)F)c1 | inactive: 99%
CCc1ccccc1NC(=O)C1CCN(c2cnccn2)CC1 | inactive: 43%
O=C(NCc1ccccc1Cl)c1ccc(Cn2c(SCc3ccccc3)nc3cccnc32)cc1 | inactive: 72%
Cc1ccccc1Cn1c2ccccc2c2cnn(CC(=O)NCC(C)c3ccccc3)c(=O)c21 (centres undefined) | inactive: 79%
